# Reference: the BET-seq Pho4 binding data (Le et al. 2018)
# Some of the results follow. These are noisy estimates, calculated here from bound and input reads.
# Target: T1, Pho4 (S. cerevisiae) (UniProt P07270)
# T1 sequence: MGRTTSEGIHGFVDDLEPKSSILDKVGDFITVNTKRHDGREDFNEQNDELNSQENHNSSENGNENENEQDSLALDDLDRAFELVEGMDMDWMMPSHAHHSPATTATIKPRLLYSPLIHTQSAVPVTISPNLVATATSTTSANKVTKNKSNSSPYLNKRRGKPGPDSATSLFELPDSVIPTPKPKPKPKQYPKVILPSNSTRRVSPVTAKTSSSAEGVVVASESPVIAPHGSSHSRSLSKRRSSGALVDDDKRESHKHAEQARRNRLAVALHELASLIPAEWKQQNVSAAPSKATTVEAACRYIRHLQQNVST
# Assay: relative binding free energy (BET-seq); higher = weaker binding
# Details: reference: library average
row,Sequence,relative binding free energy [kcal/mol]
1,TCGGACACGTGCGTGT,-0.1
2,AGAGACACGTGTGCGG,-0.01
3,ATGCTCACGTGGGTGG,0.05
4,GATTTCACGTGATTTA,0.37
5,TCATGCACGTGATCGT,0.13
6,TAACGCACGTGTGTGA,-0.1
7,CGTAACACGTGGGTTG,-0.09
8,TTTTGCACGTGGTAGG,-0.06
9,ATATTCACGTGAAATA,0.39
10,TTTAACACGTGTGGAT,0.07
11,TTTGACACGTGTAATT,0.2
12,GATCTCACGTGTTAGT,0.39
13,GGTAACACGTGGCTGT,0
14,GGTGACACGTGGTCAG,0.08
15,CTTTGCACGTGCGGTA,-0.17
16,TGTGGCACGTGAGTCG,0.17
17,GTTTTCACGTGAGGGT,0.4
18,TGCGACACGTGGGATA,0
19,TAGGGCACGTGACGTG,-0.04
20,GTTTCCACGTGTGTAT,0.11
21,AGTAGCACGTGAGAGG,0.22
22,TTGTCCACGTGCAGTG,0.01
23,TAGATCACGTGTGTCA,0.25
24,TTTTACACGTGATGCG,0.22
25,CGGGGCACGTGTGCAG,-0.13

row,Sequence,relative binding free energy [kcal/mol]
1,ATGGGCACGTGGAATG,-0.01
2,CTGATCACGTGAGGTG,0.33
3,CTACACACGTGGGGGG,-0.11
4,TTCGCCACGTGGGGGT,-0.25
5,TGCAGCACGTGTTTTA,-0.11
6,CTCGACACGTGGTGGG,-0.13
7,ATCTTCACGTGGAGTT,0.32
8,GGAGGCACGTGGTAAA,-0.04
9,CTGTTCACGTGTGCGG,0.2
10,GTGTGCACGTGGTTGT,-0.06
11,TATGACACGTGGAGGA,0.03
12,TTATACACGTGGTGCG,-0.09
13,TAGTGCACGTGCGGCG,-0.1
14,CGTGTCACGTGCTTTG,0.01
15,ACAGGCACGTGTGGAA,-0.04
16,TGTTTCACGTGGGCGC,0.3
17,AGAAGCACGTGGAGGC,-0.06
18,TGTAGCACGTGACGTT,-0.01
19,TGGGTCACGTGAGGAT,0.28
20,TGTAGCACGTGAGGCC,0.18
21,GTGCTCACGTGTCGGG,0.22
22,TTGGTCACGTGAGAGT,0.32
23,TGGGTCACGTGGATAA,0.13
24,CTTGGCACGTGGTGGA,-0.23
25,ATTTTCACGTGATGAG,0.43

row,Sequence,relative binding free energy [kcal/mol]
1,GGTGGCACGTGGCACG,-0.13
2,TTATACACGTGGGTCA,-0.21
3,TGGGACACGTGGCGAT,-0.09
4,TGTCCCACGTGAAGTG,0.29
5,GTTACCACGTGTTTTG,0.07
6,GTCGTCACGTGGGGTT,-0.01
7,CGGTACACGTGGGTTG,-0.08
8,ATTCGCACGTGGTGAG,-0.17
9,GATAACACGTGGTGGT,0.11
10,TTTATCACGTGTTAGA,0.12
11,TGTTGCACGTGGAACT,0.02
12,ACTTGCACGTGGTTTC,0.04
13,GGCGACACGTGGTGTA,-0.02
14,TGATTCACGTGCCGTG,0.19
15,TTCAGCACGTGGTAGT,-0.17
16,CTTATCACGTGTGATT,0.24
17,CGTCTCACGTGTGTTG,0.19
18,TAAGGCACGTGTTGGG,-0.07
19,TGGTACACGTGGCTAG,-0.01
20,GTCTTCACGTGGGCTG,0.07
21,GAAGACACGTGTTGGA,0.07
22,TTGTGCACGTGGAAGA,0.01
23,GGTAGCACGTGGTAGT,-0.04
24,TTCGACACGTGAAGTT,0.22
25,GGCGTCACGTGAGTGC,0.33

row,Sequence,relative binding free energy [kcal/mol]
1,TGAAGCACGTGAGGGT,0.16
2,ATTATCACGTGACTGT,0.13
3,GTTGGCACGTGAGCTT,0.06
4,AGACGCACGTGGTGAG,-0.11
5,GGAGACACGTGCTTGT,-0.07
6,GTGTTCACGTGGTACT,0.43
7,TTACACACGTGGTGGT,-0.16
8,GGAAACACGTGGCGGG,0.02
9,TTTGTCACGTGATACA,0.32
10,AATGTCACGTGTCAGG,0.19
11,CTCATCACGTGGGGGT,-0.07
12,AATGACACGTGGTTTT,0
13,ATAGTCACGTGAACTG,0.32
14,TTATCCACGTGTGCGG,0
15,GTGGCCACGTGAATGG,0.22
16,TTTGGCACGTGACTTG,0.1
17,AGAAACACGTGTGTGT,0.17
18,TAGGACACGTGTGTGT,0.05
19,TTAATCACGTGGCCTG,0.17
20,ATCCGCACGTGTTGGG,-0.06
21,GGGGGCACGTGTTGGA,-0.04
22,GTCGGCACGTGAGTAT,0.31
23,GGGGACACGTGAGCGG,0.23
24,TGTGACACGTGACGTT,-0.02
25,GTTGGCACGTGACTTG,-0.01

row,Sequence,relative binding free energy [kcal/mol]
1,CTGTGCACGTGGGAGT,-0.15
2,GTGAGCACGTGGAACG,0.05
3,CGTATCACGTGGGTTG,-0.12
4,ATGTACACGTGGTGTC,-0.26
5,ATGTACACGTGATGTC,0.23
6,ATTTTCACGTGGGACT,0.44
7,GGGCGCACGTGAATGA,0.35
8,AGCGGCACGTGGGGAG,-0.25
9,ATTGTCACGTGTTGAA,-0.02
10,TTATGCACGTGTTGCT,-0.03
11,TCATACACGTGTTGAT,0.11
12,CATTTCACGTGTGCGT,0.27
13,TTTCCCACGTGTTGGT,0.04
14,TTGGGCACGTGACTGA,0.09
15,TGTGTCACGTGTGTCA,0.19
16,TTCTTCACGTGCGGTA,0.33
17,AACTGCACGTGGGGGG,-0.06
18,TCATTCACGTGGGGGA,0.16
19,GTTGTCACGTGCTAGG,0.17
20,GTGCTCACGTGGTTAG,0.21
21,GGGTACACGTGCGGCG,0.06
22,ATTGGCACGTGTCTTA,-0.02
23,TTGCTCACGTGGCGCG,0.16
24,TAGAACACGTGTGGGT,-0.03
25,TCTTGCACGTGGCAGT,0.09

row,Sequence,relative binding free energy [kcal/mol]
1,TTGAGCACGTGCGAGT,-0.05
2,AGTAGCACGTGGTTGC,-0.07
3,GGCCTCACGTGCGTGG,0.11
4,ATGTTCACGTGTGTCT,0.15
5,TTTGTCACGTGTTTGC,0.03
6,CGGTGCACGTGTCGGT,-0.06
7,TGGTGCACGTGGCATT,-0.07
8,GGGCTCACGTGAATAG,0.55
9,TATTGCACGTGGTCAG,-0.08
10,ATTGTCACGTGGTCTG,-0.07
11,GAGCTCACGTGGTTGA,0.34
12,TTGAGCACGTGGACGA,0.06
13,GTTTACACGTGGGCGG,-0.01
14,GGTATCACGTGATGAT,0.38
15,CTTGGCACGTGCGGAT,-0.13
16,GGGGGCACGTGCCCGT,-0.18
17,ATGTGCACGTGGGTTA,-0.19
18,CATGGCACGTGAGGGT,0.08
19,CGGTCCACGTGGGGAG,-0.1
20,GTGGACACGTGGTTAG,-0.02
21,AAGTTCACGTGCTATT,0.27
